According to publication PMC8637566, “ERK signaling controls productive HIF‐1 binding to chromatin and cancer cell adaptation to hypoxia through HIF‐1α interaction with NPM1” (Molecular Oncology, 2021):
No constants are given. Whether binding was seen depends on the method and setting. For some assays here: Binding seen in cells or lysates may run through a third protein. Some binding calls cover weakened binding; strength is not graded here. Each block holds one molecule with its values, some of them ahead of it.

By UniProt entry, the sequences of proteins in these tests, tags left out. Where a name states a change or a piece, a line headed by the entry shows the natural chain unless it says otherwise. Chains listed by the source or under a name are the forms on record and can include a tag or linker.
UniProt P06748: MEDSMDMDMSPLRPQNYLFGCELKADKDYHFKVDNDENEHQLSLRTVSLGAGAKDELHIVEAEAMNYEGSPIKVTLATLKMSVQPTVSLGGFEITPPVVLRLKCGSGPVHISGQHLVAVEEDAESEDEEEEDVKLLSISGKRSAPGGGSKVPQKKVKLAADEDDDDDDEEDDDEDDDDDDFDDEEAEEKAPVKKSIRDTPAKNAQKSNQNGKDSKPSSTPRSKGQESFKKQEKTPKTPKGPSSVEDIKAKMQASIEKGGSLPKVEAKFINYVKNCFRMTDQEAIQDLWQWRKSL
GST‐NPM1 B23.2 (P06748, form named): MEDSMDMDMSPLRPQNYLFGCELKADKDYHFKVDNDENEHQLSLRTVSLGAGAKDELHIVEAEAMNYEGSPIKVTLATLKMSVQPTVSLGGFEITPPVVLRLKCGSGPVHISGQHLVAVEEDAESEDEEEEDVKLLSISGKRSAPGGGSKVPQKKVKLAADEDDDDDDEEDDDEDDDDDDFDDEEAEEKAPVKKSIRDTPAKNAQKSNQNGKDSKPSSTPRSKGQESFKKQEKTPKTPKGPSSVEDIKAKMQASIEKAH
UniProt P27540: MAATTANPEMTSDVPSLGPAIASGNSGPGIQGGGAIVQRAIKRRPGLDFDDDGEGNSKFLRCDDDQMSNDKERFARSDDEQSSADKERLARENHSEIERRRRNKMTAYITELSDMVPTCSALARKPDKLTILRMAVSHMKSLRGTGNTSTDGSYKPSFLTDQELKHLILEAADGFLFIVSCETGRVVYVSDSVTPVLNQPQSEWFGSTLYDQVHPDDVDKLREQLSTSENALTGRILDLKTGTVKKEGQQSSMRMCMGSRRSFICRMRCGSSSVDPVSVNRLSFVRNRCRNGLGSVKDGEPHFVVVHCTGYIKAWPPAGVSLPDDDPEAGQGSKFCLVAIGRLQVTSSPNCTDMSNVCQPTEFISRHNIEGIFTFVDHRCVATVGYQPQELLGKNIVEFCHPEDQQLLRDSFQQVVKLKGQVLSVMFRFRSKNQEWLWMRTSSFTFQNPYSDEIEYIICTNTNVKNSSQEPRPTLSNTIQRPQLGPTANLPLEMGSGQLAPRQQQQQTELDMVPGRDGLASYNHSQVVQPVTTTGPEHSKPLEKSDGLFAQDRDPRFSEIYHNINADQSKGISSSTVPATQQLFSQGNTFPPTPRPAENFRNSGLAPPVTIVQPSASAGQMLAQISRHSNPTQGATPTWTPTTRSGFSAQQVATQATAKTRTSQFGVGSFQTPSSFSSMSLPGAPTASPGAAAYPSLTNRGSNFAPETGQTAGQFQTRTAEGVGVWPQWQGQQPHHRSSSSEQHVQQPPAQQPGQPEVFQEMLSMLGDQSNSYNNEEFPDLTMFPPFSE
UniProt Q99814: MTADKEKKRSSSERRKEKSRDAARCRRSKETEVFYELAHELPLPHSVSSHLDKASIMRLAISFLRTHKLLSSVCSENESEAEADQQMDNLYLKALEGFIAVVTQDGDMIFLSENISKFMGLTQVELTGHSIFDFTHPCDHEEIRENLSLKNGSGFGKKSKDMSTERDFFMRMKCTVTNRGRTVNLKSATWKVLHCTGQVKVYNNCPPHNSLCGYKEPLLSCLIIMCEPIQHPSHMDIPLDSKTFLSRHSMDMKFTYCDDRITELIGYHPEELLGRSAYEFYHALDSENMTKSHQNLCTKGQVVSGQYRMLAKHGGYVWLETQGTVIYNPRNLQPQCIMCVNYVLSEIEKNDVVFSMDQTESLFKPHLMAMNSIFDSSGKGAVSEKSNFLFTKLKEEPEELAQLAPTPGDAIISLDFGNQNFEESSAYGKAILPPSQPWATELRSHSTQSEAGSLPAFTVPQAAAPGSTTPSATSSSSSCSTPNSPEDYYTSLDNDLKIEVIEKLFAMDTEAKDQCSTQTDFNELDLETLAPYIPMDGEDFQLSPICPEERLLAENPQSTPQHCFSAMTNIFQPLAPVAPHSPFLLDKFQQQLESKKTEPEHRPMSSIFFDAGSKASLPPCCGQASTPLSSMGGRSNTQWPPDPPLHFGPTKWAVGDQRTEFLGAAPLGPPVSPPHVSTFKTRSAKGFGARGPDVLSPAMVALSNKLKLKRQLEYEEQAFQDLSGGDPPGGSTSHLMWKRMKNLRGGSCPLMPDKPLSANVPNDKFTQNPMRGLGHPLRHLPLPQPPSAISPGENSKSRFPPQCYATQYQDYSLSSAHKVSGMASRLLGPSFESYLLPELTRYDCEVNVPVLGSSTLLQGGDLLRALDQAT

Columns and labels:
[1] = molecular target: nucleophosmin (NPM1), endogenous (human (endogenous in HeLa and Huh7)) (UniProt P06748); test: co-IP; anti-NPM1 IP from HeLa cells incubated at 1% O2 for 16 h, untreated; immunoblot for HIF-1α, ARNT, HIF-2α
[2] = molecular target: nucleophosmin (NPM1), endogenous (human (endogenous in HeLa and Huh7)) (UniProt P06748); test: co-IP; anti-NPM1 IP from HeLa cells incubated at 1% O2 for 16 h and treated with 5 μM U0126 (MEK inhibitor); immunoblot for HIF-1α
[3] = molecular target: T1, GST‐NPM1 B23.1 (UniProt P06748 1-294); test: pull-down; GST-NPM1 splice variants immobilised on GSH-agarose as baits, soluble extracts of hypoxic HeLa cells as prey; anti-HIF-1α immunoblot; only the target purified
T1 construct: NPM1 isoform B23.1, the most abundant form, with the C-terminal aromatic stretch; also called GST‐B23.1; B23.1 form of recombinant NPM1; source: E. coli BL21 (RIL), purified (GSH‐agarose)

[4] = molecular target: GST‐NPM1 B23.2 (UniProt P06748); test: as above
[5] = molecular target: HIF‐1α, endogenous (human (endogenous in HeLa and Huh7)) (UniProt Q16665); test: co-IP; anti-HIF-1α IP from Huh7 cells grown at 1% O2 and treated with ~380 nM TAT-ETD-FLAG peptide forms for 5 h; immunoblot for NPM1
[6] = molecular target: HIF‐1α, endogenous (human (endogenous in HeLa and Huh7)) (UniProt Q16665); test: co-IP; anti-HIF-1α IP from HeLa cells grown at 21% or 1% O2 for 16 h, untreated, with 5 μM U0126 or deprived of serum; immunoblot for NPM1
[7] = molecular target: GFP‐HIF‐1α IA/SA (UniProt Q16665); test: co-IP; anti-GFP IP from HeLa cells transiently expressing GFP-tagged full-length HIF-1α forms, 20 h post-transfection; immunoblot for ARNT and NPM1
[8] = molecular target: GFP‐HIF‐1α S247A (UniProt Q16665); test: as above
[9] = molecular target: GFP‐HIF‐1α SE (UniProt Q16665); test: as above
[10] = molecular target: GFP‐HIF‐1α WT (UniProt Q16665); test: as above
[11] = molecular target: TAT‐ETD(SE)‐FLAG peptide (UniProt Q16665); test: co-IP; anti-FLAG IP from Huh7 cells grown at 1% O2 and treated with ~380 nM TAT-ETD-FLAG peptide forms for 5 h; immunoblot for NPM1; only the target purified
[12] = molecular target: TAT‐ETD‐FLAG peptide IA (UniProt Q16665); test: as above
[13] = molecular target: TAT‐ETD‐FLAG peptide SA (UniProt Q16665); test: condition: ~380 nM peptide added to the cells for 5 h; co-IP; anti-FLAG IP from Huh7 cells grown at 1% O2 and treated with ~380 nM TAT-ETD-FLAG peptide forms for 5 h; immunoblot for NPM1; only the target purified
[14] = molecular target: GST‐ETD‐SA (UniProt Q16665); test: pull-down; GST-tagged HIF-1α ETD or HIF-1α(348–826) forms immobilised on GSH-agarose as baits, total/soluble HeLa protein extracts as prey; elution by GSH or by TEV cleavage of the GST moiety; SDS/PAGE staining, mass spectrometry of the 36 kDa band, anti-NPM1 immunoblot; only the target purified
[15] = molecular target: GST‐ETD‐SE (UniProt Q16665); test: as above
[16] = molecular target: GST‐HIF‐1α(348–826) SE (UniProt Q16665); test: as above
[17] = molecular target: GST‐NPM1 B23.2 (UniProt P06748); test: pull-down; GST-NPM1 forms immobilised on GSH-agarose as baits, bacterially expressed and purified HIF-1α(348–826)SE or TAT-ETD-SE-FLAG peptide as prey; immunoblot with anti-HIF-1α or anti-Flag; both purified

binding [1]: binds
Molecule: aryl hydrocarbon receptor nuclear translocator (ARNT), endogenous (from UniProt P27540 1-789)

binding [1]: binds
binding [3]: binds
binding [4]: no binding
Molecule: HIF‐1α, endogenous (from UniProt Q16665 1-826)
binding [2]: no binding (condition: with 5 μM U0126 (MEK inhibitor))

binding [1]: no binding
Molecule: HIF‐2α, endogenous (from UniProt Q99814 1-870)

binding [5]: binds
binding [6]: binds
binding [7]: binds weakly
binding [8]: binds
binding [9]: binds
binding [10]: binds
binding [11]: binds
binding [12]: binds
binding [13]: no binding
binding [14]: no binding
binding [15]: binds
binding [16]: binds
Molecule: nucleophosmin (NPM1), endogenous (from UniProt P06748 1-294)

binding [17]: no binding
Molecule: HIF‐1α(348–826)SE, purified, in solution (from UniProt Q16665 348-826) (domain or fragment)

B1: TAT‐ETD(SE)‐FLAG peptide (peptide, UniProt Q16665 616-658, looked up)
chain: TTTATTDELKTVTKDRMEDIKILIAEPSPTHIHKETTSATSSP
notes: HIF-1α ERK targeted domain (ETD), residues 616–658, Ser641 to Glu; source: E. coli, purified
binding [17]: no binding
